# Source: the supplement of paper PMC8728848
# The list shows a part of the results.
# B1: Siglec-9 (Homo sapiens), Q9Y336 (protein)
# chain: MLLLLLPLLWGRERAEGQTSKLLTMQSSVTVQEGLCVHVPCSFSYPSHGWIYPGPVVHGYWFREGANTDQDAPVATNNPARAVWEETRDRFHLLGDPHTKNCTLSIRDARRSDAGRYFFRMEKGSIKWNYKHHRLSVNVTALTHRPNILIPGTLESGCPQNLTCSVPWACEQGTPPMISWIGTSVSPLDPSTTRSSVLTLIPQPQDHGTSLTCQVTFPGASVTTNKTVHLNVSYPPQNLTMTVFQGDGTVSTVLGNGSSLSLPEGQSLRLVCAVDAVDSNPPARLSLSWRGLTLCPSQPSNPGVLELPWVHLRDAAEFTCRAQNPLGSQQVYLNVSLQSKATSGVTQGVVGGAGATALVFLSFCVIFVVVRSCRKKSARPAAGVGDTGIEDANAVRGSASQGPLTEPWAEDSPPDQPPPASARSSVGEGELQYASLSFQMVKPWDSRGQEATDTEYSEIKIHR
# Experiments:
# Experiment in all cases: glycan array binding signal (z-score within array); higher = stronger binding
# Conditions in all cases: glycan notation: IUPAC condensed, linker removed
# [1] = target: Fuc(a1-2)Gal(b1-4)GlcNAc(b1-3)Gal(b1-4)GlcNAc(b1-2)Man(a1-3)[Fuc(a1-2)Gal(b1-4)GlcNAc(b1-3)Gal(b1-4)GlcNAc(b1-2)Man(a1-6)]Man(b1-4)GlcNAc(b1-4)GlcNAc
# How it was run: (§1)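 Glycan array data were curated from 3228 arrays in the Consortium for Functional Glycomics database and kept only where the protein sequence was available. Glycan names were converted to IUPAC-condensed notation, and columns mapping to the same glycan were averaged. The binding signal is a within-array Z-score, averaged across arrays of the same protein sequence at different concentrations or buffers and across linkers. Negative Z-scores can be read as non-binding.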
# [2] = target: Fuc(a1-2)Gal(b1-4)GlcNAc(b1-3)Gal(b1-4)GlcNAc(b1-3)Gal(b1-4)GlcNAc
# How it was run: as §1
# [3] = target: Fuc(a1-2)Gal(b1-4)GlcNAc(b1-3)GalNAc
# How it was run: as §1
# [4] = target: Fuc(a1-2)Gal(b1-4)GlcNAc(b1-3)[Fuc(a1-2)Gal(b1-4)GlcNAc(b1-6)]GalNAc
# How it was run: as §1
# [5] = target: Fuc(a1-2)Gal(b1-4)GlcNAc(b1-3)[Fuc(a1-3)[Gal(b1-4)]GlcNAc(b1-6)]Gal(b1-4)Glc
# How it was run: as §1
# [6] = target: Fuc(a1-2)Gal(b1-4)GlcNAc(b1-6)GalNAc
# How it was run: as §1
# [7] = target: Fuc(a1-2)Gal(b1-4)GlcNAc6S
# How it was run: as §1
# [8] = target: Fuc(a1-2)Gal(b1-4)[Fuc(a1-3)]GlcNAc
# How it was run: as §1
# [9] = target: Fuc(a1-2)Gal(b1-4)[Fuc(a1-3)]GlcNAc(b1-2)Man(a1-3)[Fuc(a1-2)Gal(b1-4)[Fuc(a1-3)]GlcNAc(b1-2)Man(a1-6)]Man(b1-4)GlcNAc(b1-4)[Fuc(a1-6)]GlcNAc
# How it was run: as §1
# [10] = target: Fuc(a1-2)Gal(b1-4)[Fuc(a1-3)]GlcNAc(b1-2)[Fuc(a1-2)Gal(b1-4)[Fuc(a1-3)]GlcNAc(b1-4)]Man(a1-3)[Fuc(a1-2)Gal(b1-4)[Fuc(a1-3)]GlcNAc(b1-2)Man(a1-6)]Man(b1-4)GlcNAc(b1-4)GlcNAc
# How it was run: as §1
# [11] = target: Fuc(a1-2)Gal(b1-4)[Fuc(a1-3)]GlcNAc(b1-3)Gal(b1-4)[Fuc(a1-3)]GlcNAc
# How it was run: as §1
# [12] = target: Fuc(a1-2)Gal(b1-4)[Fuc(a1-3)]GlcNAc(b1-3)Gal(b1-4)[Fuc(a1-3)]GlcNAc(b1-3)Gal(b1-4)[Fuc(a1-3)]GlcNAc
# How it was run: as §1
# [13] = target: Fuc(a1-2)Gal(b1-4)[Fuc(a1-3)]GlcNAc(b1-3)GalNAc
# How it was run: as §1
# [14] = target: Fuc(a1-2)Gal(b1-4)[Fuc(a1-3)]GlcNAc(b1-3)[Neu5Ac(a2-6)Gal(b1-4)GlcNAc(b1-6)]Gal(b1-4)Glc
# How it was run: as §1
# [15] = target: Fuc(a1-2)Gal3S(b1-4)GlcNAc
# How it was run: as §1
# [16] = target: Fuc(a1-2)Gal6S(b1-3)GlcNAc
# How it was run: as §1
# [17] = target: Fuc(a1-2)Gal6S(b1-3)GlcNAc6S
# How it was run: as §1
# Fuc(a1-2)Gal6S(b1-4)Glc = target: Fuc(a1-2)Gal6S(b1-4)Glc
# How it was run: as §1
# [18] = target: Fuc(a1-2)Gal6S(b1-4)Glc6S
# How it was run: as §1
# Fuc(a1-2)[Gal(a1-3)]Gal = target: Fuc(a1-2)[Gal(a1-3)]Gal
# How it was run: as §1
# [19] = target: Fuc(a1-2)[Gal(a1-3)]Gal(b1-3)GalNAc
# How it was run: as §1
# [20] = target: Fuc(a1-2)[Gal(a1-3)]Gal(b1-3)GalNAc(b1-3)Gal(a1-4)Gal(b1-4)Glc
# How it was run: as §1
# [21] = target: Fuc(a1-2)[Gal(a1-3)]Gal(b1-3)GlcNAc
# How it was run: as §1
# [22] = target: Fuc(a1-2)[Gal(a1-3)]Gal(b1-3)GlcNAc(b1-2)Man(a1-3)[Fuc(a1-2)[Gal(a1-3)]Gal(b1-3)GlcNAc(b1-2)Man(a1-6)]Man(b1-4)GlcNAc(b1-4)GlcNAc
# How it was run: as §1
# [23] = target: Fuc(a1-2)[Gal(a1-3)]Gal(b1-3)GlcNAc(b1-2)Man(a1-3)[Fuc(a1-2)[Gal(a1-3)]Gal(b1-3)GlcNAc(b1-2)Man(a1-6)]Man(b1-4)GlcNAc(b1-4)[Fuc(a1-6)]GlcNAc
# How it was run: as §1
# [24] = target: Fuc(a1-2)[Gal(a1-3)]Gal(b1-3)GlcNAc(b1-3)GalNAc
# How it was run: as §1
# [25] = target: Fuc(a1-2)[Gal(a1-3)]Gal(b1-3)GlcNAc(b1-6)GalNAc
# How it was run: as §1
# [26] = target: Fuc(a1-2)[Gal(a1-3)]Gal(b1-4)Glc
# How it was run: as §1
# [27] = target: Fuc(a1-2)[Gal(a1-3)]Gal(b1-4)GlcNAc
# How it was run: as §1
# [28] = target: Fuc(a1-2)[Gal(a1-3)]Gal(b1-4)GlcNAc(b1-2)Man
# How it was run: as §1
binder,measurement,setting,value
B1,glycan array binding signal (z-score),[1],0.031
same,glycan array binding signal (z-score),[2],-0.112
same,glycan array binding signal (z-score),[3],-0.13
same,glycan array binding signal (z-score),[4],0.077
same,glycan array binding signal (z-score),[5],-0.338
same,glycan array binding signal (z-score),[6],-0.065
same,glycan array binding signal (z-score),[7],-0.283
same,glycan array binding signal (z-score),[8],-0.153
same,glycan array binding signal (z-score),[9],-0.277
same,glycan array binding signal (z-score),[10],0.117
same,glycan array binding signal (z-score),[11],-0.122
same,glycan array binding signal (z-score),[12],-0.148
same,glycan array binding signal (z-score),[13],-0.186
same,glycan array binding signal (z-score),[14],-0.045
same,glycan array binding signal (z-score),[15],-0.336
same,glycan array binding signal (z-score),[16],-0.196
same,glycan array binding signal (z-score),[17],0.319
same,glycan array binding signal (z-score),Fuc(a1-2)Gal6S(b1-4)Glc,-0.323
same,glycan array binding signal (z-score),[18],0.059
same,glycan array binding signal (z-score),Fuc(a1-2)[Gal(a1-3)]Gal,-0.193
same,glycan array binding signal (z-score),[19],-0.015
same,glycan array binding signal (z-score),[20],-0.093
same,glycan array binding signal (z-score),[21],-0.296
same,glycan array binding signal (z-score),[22],-0.23
same,glycan array binding signal (z-score),[23],0.126
same,glycan array binding signal (z-score),[24],0.048
same,glycan array binding signal (z-score),[25],-0.005
same,glycan array binding signal (z-score),[26],0.112
same,glycan array binding signal (z-score),[27],0.106
same,glycan array binding signal (z-score),[28],-0.024
